This is an account of results in PMC8641752.

Amino acid sequences for entries named in this document (tags omitted).
UniProt P25694: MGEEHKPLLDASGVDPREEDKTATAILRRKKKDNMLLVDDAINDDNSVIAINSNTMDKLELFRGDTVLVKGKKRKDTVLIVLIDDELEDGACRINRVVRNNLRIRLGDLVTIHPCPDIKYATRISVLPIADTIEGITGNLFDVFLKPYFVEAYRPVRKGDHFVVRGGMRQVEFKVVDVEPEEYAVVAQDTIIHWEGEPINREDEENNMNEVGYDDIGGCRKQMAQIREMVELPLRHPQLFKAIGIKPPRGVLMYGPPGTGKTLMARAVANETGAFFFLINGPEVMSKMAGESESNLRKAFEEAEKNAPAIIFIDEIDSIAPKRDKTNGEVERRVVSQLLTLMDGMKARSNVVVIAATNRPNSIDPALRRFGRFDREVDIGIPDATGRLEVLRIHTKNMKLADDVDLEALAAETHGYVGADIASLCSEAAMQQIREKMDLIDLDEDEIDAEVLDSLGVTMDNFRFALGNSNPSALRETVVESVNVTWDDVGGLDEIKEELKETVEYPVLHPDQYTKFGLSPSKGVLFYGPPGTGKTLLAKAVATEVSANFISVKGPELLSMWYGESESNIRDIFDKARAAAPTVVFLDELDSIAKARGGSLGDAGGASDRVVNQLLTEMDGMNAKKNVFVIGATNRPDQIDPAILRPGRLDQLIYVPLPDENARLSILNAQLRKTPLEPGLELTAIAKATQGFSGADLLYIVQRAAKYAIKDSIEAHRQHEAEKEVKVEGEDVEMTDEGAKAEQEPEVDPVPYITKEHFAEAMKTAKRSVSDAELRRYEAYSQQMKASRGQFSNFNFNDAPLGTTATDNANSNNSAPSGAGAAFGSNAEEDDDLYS

Residue numbers refer to the chain shown, from its start. No constants are given. Whether binding was seen depends on the method and setting. Binding seen in cells or lysates may run through a third protein. Some results given as binding are weak or reduced against the parent protein; the word gives no strength. For some assays here: Tags and fused reporters may be left off the sequences shown.

The target of assay [1] is T1, Hmg2-GFP (S. cerevisiae) (UniProt P12684).
T1 sequence (chain, polyubiquitin chain conjugated in cells (sites not printed)): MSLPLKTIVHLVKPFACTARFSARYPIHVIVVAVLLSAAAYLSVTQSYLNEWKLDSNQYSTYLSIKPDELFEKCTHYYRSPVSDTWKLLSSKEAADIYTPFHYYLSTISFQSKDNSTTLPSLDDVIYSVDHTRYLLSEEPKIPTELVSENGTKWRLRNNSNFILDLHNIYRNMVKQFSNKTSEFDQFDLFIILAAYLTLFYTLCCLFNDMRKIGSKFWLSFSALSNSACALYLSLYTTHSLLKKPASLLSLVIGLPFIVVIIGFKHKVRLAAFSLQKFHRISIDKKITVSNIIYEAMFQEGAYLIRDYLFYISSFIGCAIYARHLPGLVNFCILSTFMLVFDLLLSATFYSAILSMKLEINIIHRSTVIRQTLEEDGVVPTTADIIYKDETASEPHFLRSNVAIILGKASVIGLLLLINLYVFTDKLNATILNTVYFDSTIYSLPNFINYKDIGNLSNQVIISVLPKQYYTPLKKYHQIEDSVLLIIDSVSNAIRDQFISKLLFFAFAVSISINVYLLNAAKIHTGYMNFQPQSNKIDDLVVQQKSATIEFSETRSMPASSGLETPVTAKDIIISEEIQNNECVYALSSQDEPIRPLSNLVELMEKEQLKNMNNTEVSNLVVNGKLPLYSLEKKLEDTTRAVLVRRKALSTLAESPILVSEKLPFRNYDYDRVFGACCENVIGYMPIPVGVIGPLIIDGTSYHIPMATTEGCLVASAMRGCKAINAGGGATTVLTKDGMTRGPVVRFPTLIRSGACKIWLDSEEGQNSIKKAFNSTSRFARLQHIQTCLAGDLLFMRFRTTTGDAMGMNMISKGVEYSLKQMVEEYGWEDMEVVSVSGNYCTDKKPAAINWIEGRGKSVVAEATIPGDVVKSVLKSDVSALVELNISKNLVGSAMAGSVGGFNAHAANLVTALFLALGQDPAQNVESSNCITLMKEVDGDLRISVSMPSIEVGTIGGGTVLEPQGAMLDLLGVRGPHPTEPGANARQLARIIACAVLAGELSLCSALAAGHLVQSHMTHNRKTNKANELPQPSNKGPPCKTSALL
In words: condition: only with added free Lys48-linked polyubiquitin chains (2, 5, and 10 μg); co-IP; free polyubiquitin competition test: solubilised microsomes incubated with Lys48-linked polyubiquitin chains (2, 5, 10 μg) or buffer for one hour at 4°C, then GFP-Trap precipitation of Hmg2-GFP; blots for Cdc48, Dfm1-HA.

In assay [2] the target is T2, Dfm1-F107S (S. cerevisiae) (UniProt Q12743).
T2 sequence: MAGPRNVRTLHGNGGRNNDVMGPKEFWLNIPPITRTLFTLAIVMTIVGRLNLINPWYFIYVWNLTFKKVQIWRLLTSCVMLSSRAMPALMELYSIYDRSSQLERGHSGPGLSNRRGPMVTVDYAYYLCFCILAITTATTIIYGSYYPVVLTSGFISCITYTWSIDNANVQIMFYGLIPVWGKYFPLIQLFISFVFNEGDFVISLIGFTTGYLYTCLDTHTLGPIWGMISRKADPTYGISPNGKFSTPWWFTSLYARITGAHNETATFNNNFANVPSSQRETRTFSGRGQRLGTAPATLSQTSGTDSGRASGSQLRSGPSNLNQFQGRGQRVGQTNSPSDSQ
The assay can be described thus: co-sedimentation; Cdc48 microsome association assay: yeast lysate split into cytosolic supernatant and microsomal pellet by centrifugation; Cdc48 in the pellet of strains expressing the variant, blot with anti-Cdc48.

The target in assay [3] is T3, Dfm1-F58S (S. cerevisiae) (UniProt Q12743).
T3 sequence: T2 sequence with F58S, S107F
Described as above.

In assay [4] the target is T4, Dfm1-K67E (S. cerevisiae) (UniProt Q12743).
T4 sequence: T2 sequence with K67E, S107F
Described as above.

In assay [5] the target is T5, Dfm1-HA (S. cerevisiae) (UniProt Q12743).
T5 sequence: T2 sequence with S107F
The description is as above.

Take Cdc48 (from UniProt P25694 1-835): the binding entry in assay [1] is reported as “no binding”; in assay [2], “binds”; in assay [3], “binds”; in assay [4], “binds”; in assay [5], “binds”.
